# Assay results: PubChem BioAssay AID686978 (National Center for Advancing Translational Sciences (NCATS), 2013)
# Hit rate of the full screen: of about 420,000 compounds, about 64,000 (15%) were called active. This list was built around the results that the source calls inconclusive (neither active nor inactive); the mix of calls is not that of the screen. Calls follow the shape of the dose curve; as a rule, active = well fitted inhibition curve with a large enough effect; inconclusive = small, poorly fitted or top-dose-only effect; inactive = flat fitted curve, though single readings scatter. No potency is given beside an inconclusive call; the fits are too rough. Where a structure was tested more than once in an assay, its records may differ in their call.
# Assay: qHTS for Inhibitors of human tyrosyl-DNA phosphodiesterase 1 (TDP1): qHTS in cells in absence of CPT; also: nearly all actives have a fitted effect of over 55% in size
# Conditions: DT40 Tdp1-/- hTDP1 cells, no CPT, ATP luminescence, 48 h; activity change, negative = growth inhibition: at 46.2 µM (top of the series) unless noted
# In short: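 No-CPT arm: Tdp1-/-;hTDP1 DT40 cells (400/well) plus compounds, incubated ≥48 hr at 37 °C. Readout CellTiter-Glo luminescence.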
# % is scaled to controls: 0 for no effect and ±100 for the full control effect; potency is read from the fitted curve at half-maximal effect; tags tell the direction and shape of the fitted curve.
Compound,Potency,"activity change, negative = growth inhibition"
Cc1ccc(S(=O)(=O)NC(CC(C)C)C(=O)N2CCN(C/C=C/c3ccccc3)CC2)cc1 (centres undefined),active: 16.4 µM,
O=C(Nc1cc2c3c(c1)CC(=O)N3CCC2)c1cccc(F)c1,"inconclusive [inhibitor, partial curve]",
O=C(CCn1nc(-c2ccccc2)c2ccccc2c1=O)N1CCN(c2ccccc2)CC1,active: 23.1 µM,
Cc1ccc(NS(=O)(=O)c2ccc(C(C)C)cc2)cc1S(=O)(=O)N1CCOCC1,"inconclusive [inhibitor, single point]",
COc1ccc(Cl)cc1C(=O)Nc1ccccc1N1CCCCC1,active: 29.1 µM,
CCCCNC(=O)Nc1nc2ccccc2s1,,inconclusive: -30.9% [inhibitor]
CC(=O)NCCC(=O)N1CCCC(C(=O)c2ccc3c4c(cccc24)CC3)C1 (centres undefined),"inconclusive [inhibitor, single point]",
CCCCN(CC)C(=O)c1c[nH]c2ccc(S(=O)(=O)N(C)c3ccc(Cl)cc3)cc2c1=O,"inconclusive [inhibitor, single point]",
COc1ccc(C(=O)Nc2ccc3nc4c(c(Nc5ccccc5OC)c3c2)CCCC4)c(OC)c1,active: 3.26 µM,
CCCCc1ccc(N2C(=NC(=O)C3CCCO3)SC3CS(=O)(=O)CC32)cc1 (centres undefined),inactive,
COc1ccc(C(=O)CSc2nnc(Cn3cnc4ccccc43)o2)cc1,active: 16.4 µM,
Cc1ccc(NC(=O)c2c(-c3ccccc3Cl)noc2C)nc1,"inconclusive [inhibitor, single point]",
COc1ccc(OCCOC(=O)CNC(=O)c2ccc(Cl)cc2Cl)cc1,inactive,
Cc1nc2cc(NC(=O)NCc3ccco3)ccc2o1,inactive,
O=C(NC1CCCCC1)N1CCN(c2ccc([N+](=O)[O-])cc2)CC1,"inconclusive [inhibitor, partial curve]",
O=C(Cn1c(NCCO)nc2ccccc21)c1ccc(Cl)cc1,,inconclusive: -31.6% [inhibitor]
COc1cc(NC(=O)N2CCSc3ccccc32)cc(OC)c1OC,"inconclusive [inhibitor, single point]",
O=C(Cn1cc(S(=O)(=O)Cc2cccc([N+](=O)[O-])c2)c2ccccc21)N1CCOCC1,inactive,
Cc1cc(-c2nnc(-c3ccccc3)c(-c3ccccc3)n2)c(C)o1,"inconclusive [inhibitor, single point]",
CC(C)Cn1c(N)c(C(=O)COC(=O)c2ccc([N+](=O)[O-])o2)c(=O)n(C)c1=O,"inconclusive [inhibitor, single point]",
O=C(/C=C/Nc1ccccc1O)c1ccco1,"inconclusive [inhibitor, partial curve]",
Cc1cc(C)c2c(N)c(-c3nnc(SCc4ccc(Cl)cc4)n3C)sc2n1,"inconclusive [inhibitor, single point]",

Compound,Potency,"activity change, negative = growth inhibition"
C[C@H](NC(=O)NCc1ccc(F)cc1)C(=O)O,inactive,
Cc1ccccc1-c1nc(CN2CCN(C(=O)c3ccco3)CC2)c(C)o1,inactive,
Nc1cc(-c2ccncc2)c[nH]c1=O,active: 16.4 µM,
O=[N+]([O-])c1cccc(-c2c(-c3ccccc3)ncc3cc(F)ccc23)c1,active: 20.6 µM,
COC(=O)[C@]12CCCCC=C1N(CCc1ccc(OC)c(OC)c1)C(=O)[C@H](CC(=O)N1CCN(C(=O)c3ccco3)CC1)C2,"inconclusive [inhibitor, partial curve, poor fit]",
CCCS(=O)(=O)c1nc(S(=O)(=O)c2ccc(C)cc2)c(NCc2ccc3c(c2)OCO3)s1,"inconclusive [inhibitor, single point]",
Cc1onc(-c2ccccc2Cl)c1C(=O)N1CCN(S(=O)(=O)c2ccc(F)c(F)c2)CC1,"inconclusive [inhibitor, single point]",
Cc1ccccc1CN1CCN(CCCc2ccccc2)C(CCO)C1 (centres undefined),"inconclusive [inhibitor, single point]",
Cc1c(NC(=O)COC(=O)c2ccc(O)cc2)c(=O)n(-c2ccccc2)n1C,inactive,
CCOC(=O)c1c(CN2CCCCC2)oc2ccc(O)cc12,"inconclusive [inhibitor, single point]",
COCCCNC(=O)C[C@@H]1C[C@@]2(C(=O)OC)CCCCC=C2N(Cc2ccco2)C1=O,inactive,
Cc1cccc(CS(=O)(=O)Cc2ccc(C(=O)NCc3ccco3)o2)c1,"inconclusive [inhibitor, single point]",
CN(C)S(=O)(=O)c1ccc(S(=O)(=O)N2CCCC(C(=O)NC3CC3)C2)cc1 (centres undefined),"inconclusive [inhibitor, single point]",
O=C(/C=C/c1ccc([N+](=O)[O-])cc1)Nc1cccc(S(=O)(=O)NC2=NCCCCC2)c1,active: 14.6 µM,
COc1ccc(N(CC(=O)N2CCc3ccccc32)S(=O)(=O)c2c(C)n[nH]c2C)cc1,"inconclusive [inhibitor, single point]",
Cc1c2cnn(-c3ccccc3)c(=O)c2c(C)n1CCCC(=O)N1CCN(c2ncccn2)CC1,"inconclusive [inhibitor, single point]",
Cc1cccc(Nc2nc(-c3ccc(F)cc3)cs2)n1,"inconclusive [inhibitor, single point]",
CCOc1ccc(C2=Nc3ccccc3C(c3ccc(N4CCOCC4)cc3)=NN2)cc1,active: 13 µM,
CCOc1ccc(C(=O)Nc2ccc3c(c2)OCCO3)cc1OC,inactive,
CCOC(=O)N1C2=NC(C(=O)OC)=C(C(=O)OC)[C@@H]3N(C)c4ccc(OC)cc4[C@]23C[C@H]1C(=O)OC,"inconclusive [inhibitor, partial curve]",
COc1ccc(-n2nccc2-c2nn(-c3cccc(OC)c3)c(=O)n(C)c2=O)cc1,"inconclusive [inhibitor, partial curve]",
Nc1ccn([C@@H]2O[C@H](C(=O)NCCCN3CCCC3=O)[C@@H](O)[C@H]2O)c(=O)n1,inactive,
